# From paper PMC7819943, “Rice protein-binding microarrays: a tool to detect cis-acting elements near promoter regions in rice”
# The list shows a part of the results.
# Biological target: T1, OsWOX13 (Oryza sativa, UniProt Q5QMM3 1-267)
# T1 sequence: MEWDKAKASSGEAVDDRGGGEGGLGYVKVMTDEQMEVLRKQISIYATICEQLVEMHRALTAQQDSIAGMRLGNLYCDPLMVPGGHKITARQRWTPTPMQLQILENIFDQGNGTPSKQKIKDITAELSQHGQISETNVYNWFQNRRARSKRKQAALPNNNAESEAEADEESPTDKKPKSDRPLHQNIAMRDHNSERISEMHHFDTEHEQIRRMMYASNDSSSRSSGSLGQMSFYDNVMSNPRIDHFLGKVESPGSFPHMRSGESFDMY
# Experiment: protein-binding microarray (RPBM); PBS, 2% BSA, 51.3 ng/ul salmon testes DNA, 50 uM zinc acetate, 200 nM TF, 25 C, 1 h; high values mean tight binding
# Details: protein: recombinant; tags: N-terminal polyhistidine and DsRed monomer fusion (pET32a); label: CyDye5-dUTP incorporated in the synthesized complementary strand; 3' TTTTT single-stranded linker to array surface; dsDNA, one strand shown
# Outline: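 An Axon 4000B scanner gave the binding signal as per-feature fluorescence intensity in arbitrary units. This followed washing of a custom Agilent array that had been incubated for 1 h at 25 °C with 200 nM protein in PBS, 2% BSA, salmon testes DNA and 50 µM zinc acetate. The proteins were transcription factors fused at the N-terminus to polyhistidine and DsRed, expressed in E. coli BL21-CodonPlus and purified on Ni–NTA.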
row,Sequence,binding signal
1,TTTGGATTGATCATGGTCATTTGTACTTTTGTAGTCTTTACGGAGTCACCTAGTGCAG,21500 fluorescence intensity (a.u.)
2,ATGGCTCTATCATTGACGGTGACGACTGCATATGTTAAGGCGGAGTCACCTAGTGCAG,8100 fluorescence intensity (a.u.)
3,CACTAAATTACCTGTTTCTGCATTGCTAATCGGAGTGATCCGGAGTCACCTAGTGCAG,3520 fluorescence intensity (a.u.)
4,ATCGTGACAGAATATTCCCTTCCGACACCACCTCCGCTTCCGGAGTCACCTAGTGCAG,11600 fluorescence intensity (a.u.)
5,TTGTAAATTTGTAATACGGCCTTACAAACAATAGGTTAGTCGGAGTCACCTAGTGCAG,10200 fluorescence intensity (a.u.)
6,TATGACTAGTTATTTAAAGATTGGTCCTGAACAAAGTGTACGGAGTCACCTAGTGCAG,8190 fluorescence intensity (a.u.)
7,CAGCACATCAACTTTGATTGGGATTGCCTCTAACACCACACGGAGTCACCTAGTGCAG,22300 fluorescence intensity (a.u.)
8,AGAATAATTAGGAGCTAAATGGTGTATGTGCCGCATGCATCGGAGTCACCTAGTGCAG,17400 fluorescence intensity (a.u.)
9,TTTTGATCAATTTCAGAGTTCTACCATATATGCACTTGCCCGGAGTCACCTAGTGCAG,3260 fluorescence intensity (a.u.)
10,CCAAACTACCAAAATTGTTAGACTTTTACTGCACACACCTCGGAGTCACCTAGTGCAG,3890 fluorescence intensity (a.u.)
11,GGAGAATTGACACAAATGCATAAGGGGCTACCAAGTACAGCGGAGTCACCTAGTGCAG,26700 fluorescence intensity (a.u.)
12,ATAAATTGTTTTAAAATATCACATAAATTCATTTTCTAAGCGGAGTCACCTAGTGCAG,8290 fluorescence intensity (a.u.)
13,CCGTATCATAATCACGTCCTGCCACCCTTTTAACTAATCACGGAGTCACCTAGTGCAG,5040 fluorescence intensity (a.u.)
14,AAGCCAATCATCCCTTGAAATAGCGCCATCTTGTTGGCAACGGAGTCACCTAGTGCAG,13500 fluorescence intensity (a.u.)
15,GTTGATGAGAGTGAAATTTGATTGACAAAGGATTGACTGGCGGAGTCACCTAGTGCAG,64400 fluorescence intensity (a.u.)
16,ATTATTGAATAGTTTTATGAAACTATTTGGTCACAGTGGGCGGAGTCACCTAGTGCAG,3880 fluorescence intensity (a.u.)
17,CCAATCAATCTCCTGCACATGCACTCAAGAATTCCCTATGCGGAGTCACCTAGTGCAG,10700 fluorescence intensity (a.u.)
18,CGTAATTAGGTTTAAAAGATTCGTATTGCAATTTACACGTCGGAGTCACCTAGTGCAG,35100 fluorescence intensity (a.u.)
19,ACTAGTGATTAAATTCTTGTGCATGGTGATTGATTGGTGACGGAGTCACCTAGTGCAG,34600 fluorescence intensity (a.u.)
20,ATCCCAAATTTCCCCATCAATCGCCACCCGCGCCCAATTCCGGAGTCACCTAGTGCAG,8290 fluorescence intensity (a.u.)
21,CCTCAGCAATTTGATTATCATATTACTTGGTCGTCTTCTACGGAGTCACCTAGTGCAG,9150 fluorescence intensity (a.u.)

row,Sequence,binding signal
1,CTGATGATGTAGTGACTGAGAAGCAGGAGTGGAGTTGTGTCGGAGTCACCTAGTGCAG,6000 fluorescence intensity (a.u.)
2,AGCCATTAGCGCATGATTAATTGAGTATTAACTATTTTAACGGAGTCACCTAGTGCAG,5100 fluorescence intensity (a.u.)
3,GAAATTATGAATCAAATTCGCACACTAGCTAAGGGAGACACGGAGTCACCTAGTGCAG,3470 fluorescence intensity (a.u.)
4,TATCCAAATTATATTATTGTCAATTTAACTGAAATTTATCCGGAGTCACCTAGTGCAG,19600 fluorescence intensity (a.u.)
5,CATGATGCAAATTAATTAGTACTTGTCAACTCCATTGGATCGGAGTCACCTAGTGCAG,48600 fluorescence intensity (a.u.)
6,ACATATGAACAGGCAATTGATTTTGGATCCAGGGTAAAAGCGGAGTCACCTAGTGCAG,3260 fluorescence intensity (a.u.)
7,CTCTTGATAGACACATTCACGGTCCATCGCACTTGAAGCACGGAGTCACCTAGTGCAG,25000 fluorescence intensity (a.u.)
8,CTAGATCATGTGTAATAATTTACTACGATGAACCTTGTTGCGGAGTCACCTAGTGCAG,4320 fluorescence intensity (a.u.)
9,ATATTAAATTGTCAGTTTGTGTATCTCGGCTGATTTCTGTCGGAGTCACCTAGTGCAG,24700 fluorescence intensity (a.u.)
10,TAATCAATTGATATTTATAGAAGGTTTCTTTGAACTGCAACGGAGTCACCTAGTGCAG,6600 fluorescence intensity (a.u.)
11,ACATTCATTTCCGGTTGATTTGGCAGAAGAACTAACTTCTCGGAGTCACCTAGTGCAG,4660 fluorescence intensity (a.u.)
12,TCAGAAATTCAAATCTGTCAAGCAATAATGCAAGGAGACACGGAGTCACCTAGTGCAG,4470 fluorescence intensity (a.u.)
13,ATCAAATAATTATGAACAGATGGAAATGGACAATTTGTAGCGGAGTCACCTAGTGCAG,19500 fluorescence intensity (a.u.)
14,TGATGACGAAATTAACAAGACTAACCGATCCATCAGAGACCGGAGTCACCTAGTGCAG,11400 fluorescence intensity (a.u.)
15,ATGCGTGATGACTGATGAGTGACAACAACTAGTTGCCCTCCGGAGTCACCTAGTGCAG,21100 fluorescence intensity (a.u.)
16,CACTAATTCCATTTCGCCGTTACGCCAAACTTGGACAAACCGGAGTCACCTAGTGCAG,5170 fluorescence intensity (a.u.)
17,TTAAAATAATTGACAAGATAGATTAATATTTGGTATATCACGGAGTCACCTAGTGCAG,26400 fluorescence intensity (a.u.)
18,ACCTCCTTGCAAAATTGCAAATTTGCAATACATCACTCAGCGGAGTCACCTAGTGCAG,4530 fluorescence intensity (a.u.)
19,TTAAGCATAATTAATCCATCATTAGCAAATGTTTACTGTACGGAGTCACCTAGTGCAG,12100 fluorescence intensity (a.u.)
20,TTGCACTGATTTTATAAGTTGAGGGATGTCTTGTATCCGGCGGAGTCACCTAGTGCAG,4490 fluorescence intensity (a.u.)
21,AGCCTGACAACTAAATTGGGCTGGACTGGGCTGTAGGCGTCGGAGTCACCTAGTGCAG,4470 fluorescence intensity (a.u.)
